From PubChem BioAssay (NCATS)
Values joined by “and” are separate entries in the source; they are usually repeats but may differ in a detail not shown here. Equal entries are not always repeated. This list was built around the results that the source calls inconclusive (neither active nor inactive); the mix of calls is not that of the screen. For some assays here: Potencies beside an inconclusive call are fits to weak or partial responses and may not hold up. Active and inactive are the calls of the source. Unless noted, the call rests on the fitted dose curve; in most records, active means well fitted curve in the direction sought with a large enough effect; inconclusive means small, poorly fitted or top-dose-only effect, or another doubt; inactive means no such curve, though single readings can be large; an effect the other way counts as inactive or inconclusive.

Key:
[1] = Primary qHTS for small molecule stabilizers of the endoplasmic reticulum resident proteome: Secreted ER Calcium Modulated Protein (SERCaMP) assay (AID 1508630); details: SH-SY5Y GLuc-SERCaMP (Gaussia luciferase released on ER calcium loss) secretion, thapsigargin, luminescence; series mostly up to 38.4 µM
How it was run: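 GLuc-SERCaMP-expressing SH-SY5Y cells, pretreated 16 h with compound, are challenged with thapsigargin to empty ER calcium stores; after 4 h, coelenterazine is added directly to the medium and luminescence is imaged.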

[2] = A High-Content qHTS Against Drug Library for the Identification of Small Molecules that Inhibit DYT1 Early Onset Primary Dystonia-Associated Cell Pathology (AID 1645839; calls by dose curve)
How it was run: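 In this high-content image screen, delE TorsinA mislocalization in inducible Flp-In 293 cells is scored as %pathology, with cell count serving as the counterscreen. Compound exposure lasts 48 h under tetracycline induction in reduced-serum medium.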

[3] = Primary qHTS for inhibitors of nuclear receptor binding SET domain protein 2 (NSD2) in an isogenic RCH-ACV NSD2 p.E1099K mutant (9B) (AID 1645876); further: nearly all actives have a fitted effect of over 70% in size
[4] = molecular target: Cytochrome P450 3A4 (Homo sapiens) (UniProt P08684); test: Cytochrome P450 family 3 subfamily A member 4 (CYP3A4) small molecule antagonists: luciferase qHTS assay (AID 1645841; active means well fitted curve in the direction sought with a large enough effect in the repeat runs; inconclusive means weak or mixed curves; inactive means no such curve, though single readings can be large; an effect the other way counts as inactive or inconclusive; further: nearly all actives have a fitted effect of over 45% in size)
How it was run: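 Luminescent CYP3A4 activity readout: compounds plus enzyme-substrate mix 10 min at room temperature, reaction started with NADPH regenerating system for 1 h, stopped with detection reagent, read after 20 min. Ketoconazole served as control.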

[5] = molecular target: Cytochrome P450 2C9 (Homo sapiens) (UniProt P11712); test: Cytochrome P450 family 2 subfamily C member 9 (CYP2C9) small molecule antagonists: luciferase biochemical (cell-free) qHTS assay (AID 1645842; active means well fitted curve in the direction sought with a large enough effect in the repeat runs; inconclusive means weak or mixed curves; inactive means no such curve, though single readings can be large; an effect the other way counts as inactive or inconclusive; further: nearly all actives have a fitted effect of over 55% in size)
How it was run: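 Luminescence, after 20 min with luciferin detection reagent, reflected CYP2C9 turnover during a 1 h NADPH-driven reaction at 37C. Enzyme-substrate mix contained 0.4% bovine serum albumin and was preincubated with compound 10 min at room temperature.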

[6] = Primary qHTS for inhibitors of nuclear receptor binding SET domain protein 2 (NSD2) in an RCH-ACV wild type WT cells (2C) (AID 1645877); details: activity change, negative = cell killing: at 44.9 µM (top of the series) unless noted; further: nearly all actives have a fitted effect of over 70% in size
[7] = molecular target: Cytochrome P450 2D6 (Homo sapiens) (UniProt P10635); test: Cytochrome P450 family 2 subfamily D member 6 (CYP2D6) small molecule antagonists: luciferase biochemical (cell-free) qHTS assay (AID 1645840; active means well fitted curve in the direction sought with a large enough effect in the repeat runs; inconclusive means weak or mixed curves; inactive means no such curve, though single readings can be large; an effect the other way counts as inactive or inconclusive; further: nearly all actives have a fitted effect of over 55% in size)
How it was run: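 P450-Glo luminescent screen: recombinant CYP2D6 enzyme–proluciferin substrate mix preincubated with compound 10 min at room temperature, then NADPH regeneration added for 1 h at room temperature. Detection reagent added for 20 min; luciferin light read as relative luminescence units.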

[8] = molecular target: Papain (Carica papaya) (UniProt P00784); test: Primary qHTS assay for inhibitors of the protease papain (AID 1645873);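 further: papain turnover of Z-FR-AMC read as the AMC fluorescence gain over 10 min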
[9] = molecular target: Rap guanine nucleotide exchange factor 3 (Homo sapiens) (UniProt O95398); test: Confirmatory qHTS for antagonist of cAMP-regulated guanine nucleotide exchange factor 3 (EPAC1) (AID 1645880); further: nearly all actives have a fitted effect of over 55% in size
How it was run: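 Nucleotide exchange uses 100 nM EPAC1, 250 nM RAP1B-BODIPY-GDP and 50 uM GDP, with compounds in a concentration-titration series. After 5 min at room temperature, fluorescence (480 nm ex/540 nm em) is read every 5 min for 30 min. Data are normalized to control ATA and DMSO.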

[10] = molecular target: Rap guanine nucleotide exchange factor 4 (Homo sapiens) (UniProt Q8WZA2); test: Confirmatory qHTS for agonist of cAMP-regulated guanine nucleotide exchange factor 4 (EPAC2) (AID 1645884); details: EPAC2 GEF activity, Rap1B-BODIPY-GDP fluorescence;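 further: nucleotide exchange releases bodipy-GDP from Rap1 and this lowers its fluorescence; nearly all actives have a fitted effect of over 65% in size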
[11] = molecular target: Rap guanine nucleotide exchange factor 4 (Homo sapiens) (UniProt Q8WZA2); test: Confirmatory qHTS for antagonist of cAMP-regulated guanine nucleotide exchange factor 4 (EPAC2) (AID 1645885); further: nearly all actives have a fitted effect of over 25% in size
Potency means the concentration at half of the fitted maximal effect; tags describe the fitted curve by direction and shape.

UniProt P08684, sequence (P08684 whole entry, looked up): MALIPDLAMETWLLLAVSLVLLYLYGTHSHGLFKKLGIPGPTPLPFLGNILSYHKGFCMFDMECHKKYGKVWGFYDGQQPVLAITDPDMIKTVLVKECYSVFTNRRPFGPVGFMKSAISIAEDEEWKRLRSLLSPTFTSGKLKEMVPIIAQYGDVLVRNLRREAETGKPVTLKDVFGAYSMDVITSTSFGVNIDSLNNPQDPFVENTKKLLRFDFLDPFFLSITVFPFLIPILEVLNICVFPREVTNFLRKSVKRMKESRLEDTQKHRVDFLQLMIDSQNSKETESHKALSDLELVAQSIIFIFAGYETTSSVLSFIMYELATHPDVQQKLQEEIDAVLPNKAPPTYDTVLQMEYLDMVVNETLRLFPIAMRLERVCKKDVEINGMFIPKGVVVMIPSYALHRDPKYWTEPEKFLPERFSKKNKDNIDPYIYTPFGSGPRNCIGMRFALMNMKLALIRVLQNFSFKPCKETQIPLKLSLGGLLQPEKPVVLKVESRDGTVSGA
UniProt P10635, sequence (P10635 whole entry, looked up): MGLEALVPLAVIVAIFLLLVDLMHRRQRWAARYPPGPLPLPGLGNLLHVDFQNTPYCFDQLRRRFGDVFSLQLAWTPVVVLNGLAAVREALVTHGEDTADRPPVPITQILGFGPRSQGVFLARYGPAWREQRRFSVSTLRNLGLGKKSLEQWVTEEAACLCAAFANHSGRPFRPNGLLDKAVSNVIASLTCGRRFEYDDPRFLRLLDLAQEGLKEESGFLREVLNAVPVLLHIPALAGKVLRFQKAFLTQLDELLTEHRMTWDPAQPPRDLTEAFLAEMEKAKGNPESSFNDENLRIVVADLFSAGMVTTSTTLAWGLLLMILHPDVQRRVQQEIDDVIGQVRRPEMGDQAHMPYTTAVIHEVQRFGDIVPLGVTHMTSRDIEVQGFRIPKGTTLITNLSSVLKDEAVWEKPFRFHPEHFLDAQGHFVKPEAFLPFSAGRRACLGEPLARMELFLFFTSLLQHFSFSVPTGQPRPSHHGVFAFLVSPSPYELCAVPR
UniProt P11712, sequence (P11712 whole entry, looked up): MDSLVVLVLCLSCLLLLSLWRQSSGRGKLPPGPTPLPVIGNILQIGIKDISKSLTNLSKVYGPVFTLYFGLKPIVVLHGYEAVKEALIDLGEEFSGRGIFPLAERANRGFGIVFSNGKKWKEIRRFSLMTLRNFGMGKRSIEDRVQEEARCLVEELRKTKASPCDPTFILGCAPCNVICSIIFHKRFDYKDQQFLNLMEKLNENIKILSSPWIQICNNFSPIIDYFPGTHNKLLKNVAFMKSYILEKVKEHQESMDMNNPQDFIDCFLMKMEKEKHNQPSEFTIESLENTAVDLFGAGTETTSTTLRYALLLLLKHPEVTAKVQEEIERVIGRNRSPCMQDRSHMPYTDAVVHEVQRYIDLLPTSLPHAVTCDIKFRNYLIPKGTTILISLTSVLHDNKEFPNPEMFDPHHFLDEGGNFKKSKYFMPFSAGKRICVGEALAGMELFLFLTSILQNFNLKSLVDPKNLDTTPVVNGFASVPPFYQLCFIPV
UniProt Q8WZA2, sequence (Q8WZA2 whole entry, looked up): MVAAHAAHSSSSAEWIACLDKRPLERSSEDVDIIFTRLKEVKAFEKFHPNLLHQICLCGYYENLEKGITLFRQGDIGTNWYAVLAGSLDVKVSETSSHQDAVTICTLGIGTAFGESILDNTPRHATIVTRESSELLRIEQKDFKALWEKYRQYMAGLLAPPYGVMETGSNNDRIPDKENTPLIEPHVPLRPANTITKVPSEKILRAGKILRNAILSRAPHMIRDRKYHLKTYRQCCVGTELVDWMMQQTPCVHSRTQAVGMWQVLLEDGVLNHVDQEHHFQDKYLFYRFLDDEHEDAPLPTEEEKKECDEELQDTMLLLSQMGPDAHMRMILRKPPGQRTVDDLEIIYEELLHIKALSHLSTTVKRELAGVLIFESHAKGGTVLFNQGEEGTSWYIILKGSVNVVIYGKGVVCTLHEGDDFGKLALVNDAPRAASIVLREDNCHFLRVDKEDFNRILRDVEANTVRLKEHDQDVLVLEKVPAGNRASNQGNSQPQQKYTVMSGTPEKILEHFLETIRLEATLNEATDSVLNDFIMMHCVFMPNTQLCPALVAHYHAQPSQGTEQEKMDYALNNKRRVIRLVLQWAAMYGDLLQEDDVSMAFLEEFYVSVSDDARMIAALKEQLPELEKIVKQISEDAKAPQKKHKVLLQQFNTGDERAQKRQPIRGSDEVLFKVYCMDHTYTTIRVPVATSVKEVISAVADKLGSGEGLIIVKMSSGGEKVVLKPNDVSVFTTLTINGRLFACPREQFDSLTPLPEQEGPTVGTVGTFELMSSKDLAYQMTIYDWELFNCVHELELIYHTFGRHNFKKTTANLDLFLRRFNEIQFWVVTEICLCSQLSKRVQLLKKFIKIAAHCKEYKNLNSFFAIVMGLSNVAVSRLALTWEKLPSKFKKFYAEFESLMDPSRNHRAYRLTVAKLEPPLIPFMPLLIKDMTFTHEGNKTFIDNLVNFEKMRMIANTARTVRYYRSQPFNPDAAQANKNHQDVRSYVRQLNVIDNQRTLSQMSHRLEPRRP
UniProt P00784, sequence (P00784 whole entry, looked up): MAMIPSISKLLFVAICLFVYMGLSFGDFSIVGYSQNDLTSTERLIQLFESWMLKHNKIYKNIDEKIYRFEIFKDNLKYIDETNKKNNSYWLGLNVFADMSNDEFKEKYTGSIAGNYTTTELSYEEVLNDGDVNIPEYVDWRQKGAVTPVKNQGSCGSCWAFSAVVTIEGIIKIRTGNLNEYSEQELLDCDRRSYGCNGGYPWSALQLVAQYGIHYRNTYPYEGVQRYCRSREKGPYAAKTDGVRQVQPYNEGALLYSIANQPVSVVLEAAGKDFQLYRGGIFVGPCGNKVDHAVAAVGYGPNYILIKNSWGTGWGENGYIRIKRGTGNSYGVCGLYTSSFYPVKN
UniProt O95398, sequence (O95398 whole entry, looked up): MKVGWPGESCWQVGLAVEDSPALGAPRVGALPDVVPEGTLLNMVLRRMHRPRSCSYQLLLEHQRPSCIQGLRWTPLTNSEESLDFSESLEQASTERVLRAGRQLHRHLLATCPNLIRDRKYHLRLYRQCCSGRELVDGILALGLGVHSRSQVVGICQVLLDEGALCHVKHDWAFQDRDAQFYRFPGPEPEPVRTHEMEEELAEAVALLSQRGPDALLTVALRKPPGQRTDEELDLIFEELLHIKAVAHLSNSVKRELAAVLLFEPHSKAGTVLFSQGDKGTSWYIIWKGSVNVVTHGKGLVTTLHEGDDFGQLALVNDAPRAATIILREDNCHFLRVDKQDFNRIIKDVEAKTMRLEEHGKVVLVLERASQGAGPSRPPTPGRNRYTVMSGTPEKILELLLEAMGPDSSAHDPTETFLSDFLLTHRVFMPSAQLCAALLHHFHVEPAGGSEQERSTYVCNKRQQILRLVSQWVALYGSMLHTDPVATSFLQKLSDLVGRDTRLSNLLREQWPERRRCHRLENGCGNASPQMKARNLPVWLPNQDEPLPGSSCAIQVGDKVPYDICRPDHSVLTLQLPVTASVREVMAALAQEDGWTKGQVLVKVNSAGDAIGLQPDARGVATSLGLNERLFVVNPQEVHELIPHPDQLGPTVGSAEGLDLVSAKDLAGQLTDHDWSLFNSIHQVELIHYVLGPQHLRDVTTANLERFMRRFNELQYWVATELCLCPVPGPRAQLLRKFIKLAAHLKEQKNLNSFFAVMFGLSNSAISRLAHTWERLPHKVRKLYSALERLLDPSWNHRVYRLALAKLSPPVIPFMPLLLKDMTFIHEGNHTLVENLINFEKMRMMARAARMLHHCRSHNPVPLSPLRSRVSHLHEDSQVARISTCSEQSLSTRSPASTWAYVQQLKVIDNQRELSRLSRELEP

## CCCCOC(=O)c1ccc(N)cc1
[1]
  Potency: inconclusive: 8.91 µM [inhibitor, partial curve, poor fit]
[2]
  Potency: inconclusive: 2.82 µM [inhibitor, full curve]
[3]
  Potency: inconclusive: 13.3 µM [inhibitor, single point]

## CC(C)(C(=O)c1cccnc1)c1cccnc1
[1]
  Potency: inconclusive: 31.6 µM [inhibitor, partial curve, poor fit]
[4]
  Potency: inconclusive: 7.76 µM [falling, full curve]
[5]
  Potency: inactive
[3]
  Potency: inconclusive: 23.7 µM [inhibitor, single point]
[6]
  Potency: inconclusive: 29.9 µM [inhibitor, single point]

## CN1CCc2c(n(Cc3ccc(C(=O)NO)cc3)c3ccccc23)C1
[1]
  Potency: inconclusive: 0.266 µM [inhibitor, full curve]
[5]
  Potency: inconclusive: 12 µM [inhibitor, partial curve, poor fit]

## CC(C)COC(=O)c1ccc(N)cc1
[1]
  Potency: inconclusive: 10 µM [inhibitor, partial curve, poor fit]
[7]
  Potency: inconclusive: 19.5 µM [inhibitor, single point]
[5]
  Potency: inconclusive: 17.4 µM [inhibitor, partial curve]
[3]
  Potency: inconclusive: 21.1 µM [inhibitor, single point]

## CC(=O)Oc1cc(C(C)C)c(OCCN(C)C)cc1C
[1]
  Potency: inconclusive: 5.01 µM [inhibitor, full curve, poor fit] and inconclusive: 35.5 µM [inhibitor, partial curve, poor fit]
[2]
  Potency: inactive
[5]
  Potency: inactive
[8]
  Potency: inactive

## OC(Cn1cncn1)(Cn1cncn1)c1ccc(F)cc1F
[1]
  Potency: inconclusive: 28.2 µM [inhibitor, single point] and inconclusive: 4.2 nM [inhibitor, full curve, poor fit]
[7]
  Potency: inconclusive: 13.8 µM [inhibitor, partial curve]
[3]
  Potency: inactive
[6]
  Potency: inactive

## O=S(=O)(O)c1ccc2nc(-c3ccccc3)[nH]c2c1
[1]
  Potency: inactive
[5]
  Potency: inconclusive: 24.5 µM [inhibitor, partial curve]

## COc1cc(/C=C/C(=O)O[C@H]2CC[C@]34C[C@]35CC[C@]3(C)[C@@H]([C@H](C)CCC=C(C)C)CC[C@@]3(C)[C@@H]5CC[C@H]4C2(C)C)ccc1O
[1]
  Potency: inconclusive: 10 µM [inhibitor, partial curve, poor fit]
[7]
  Potency: inactive
[3]
  Potency: inconclusive: 21.1 µM [inhibitor, single point]

## CC(C)(CO)[C@@H](O)C(=O)NCCCO
[1]
  Potency: inconclusive: 2 µM [inhibitor, full curve, poor fit]
[5]
  Potency: inactive

## Oc1cc2c(cc1O)C1c3ccc(O)c(O)c3OCC1(O)C2 (centres undefined)
[1]
  Potency: inconclusive: 0.668 µM [inhibitor, full curve, poor fit]
[7]
  Potency: inactive
[3]
  Potency: inconclusive: 11.8 µM [inhibitor, single point]
[6]
  Potency: inconclusive: 2.63 µM [inhibitor, full curve]

## COC(=O)Nc1nc2ccc(C(=O)c3cccs3)cc2[nH]1
[1]
  Potency: inactive
[7]
  Potency: inactive
[3]
  Potency: active: 13.3 nM and active: 93.4 nM
[6]
  Potency: active: 9.4 nM and active: 66.1 nM

## COc1ccc(OC)c(C(O)CNC(=O)CN)c1 (centres undefined)
[1]
  Potency: inconclusive: 5.01 µM [inhibitor, partial curve, poor fit]
[7]
  Potency: inactive
[3]
  Potency: inactive
[6]
  Potency: inactive

## CCCCCCCCCCCCCC[N+](C)(C)C
[1]
  Potency: inconclusive: 2 µM [inhibitor, partial curve, poor fit]
[2]
  Potency: active: 10 µM
[5]
  Potency: inactive

## COc1cc2c(Oc3ccc4[nH]c(C)cc4c3F)ncnc2cc1OCCCN1CCCC1
[1]
  Potency: inactive
[7]
  Potency: inconclusive: 23.9 µM [inhibitor, single point]
[5]
  Potency: inconclusive: 3.01 µM [inhibitor, partial curve]
[3]
  Potency: active: 4.59 µM and active: 6.61 µM

## CC1(C)O[C@@H]2C[C@H]3[C@@H]4C[C@H](F)C5=CC(=O)C=C[C@]5(C)[C@H]4[C@@H](O)C[C@]3(C)[C@]2(C(=O)CO)O1
[1]
  Potency: inactive
[4]
  Potency: inconclusive: 27.5 µM [falling, partial curve, poor fit]
[5]
  Potency: inconclusive: 38.9 µM [inhibitor, single point]
[3]
  Potency: inconclusive: 0.0047 µM [inhibitor, single point]
[6]
  Potency: inconclusive: 0.0067 µM [inhibitor, full curve, poor fit]

## COc1ccc(CN2CCN(C(c3ccc(F)cc3)c3ccc(F)cc3)CC2)c(OC)c1OC
[1]
  Potency: inconclusive: 28.2 µM [inhibitor, single point]
[2]
  Potency: inconclusive: 25.1 µM [inhibitor, single point]
[3]
  Potency: inconclusive: 26.6 µM [inhibitor, single point] and inconclusive: 20.5 µM [inhibitor, single point]

## Cc1ccc(NC(=O)c2cccc(N(C)C)c2)cc1NC(=O)c1ccc(O)cc1
[1]
  Potency: inconclusive: 4.21 µM [inhibitor, partial curve, poor fit]
[7]
  Potency: inconclusive: 30.1 µM [inhibitor, single point]
[3]
  Potency: inconclusive: 13.2 µM [inhibitor, partial curve]
[6]
  Potency: inconclusive: 18.6 µM [inhibitor, partial curve]

## COc1cc2c(cc1OC)-c1cc(=Nc3c(C)cc(C)cc3C)n(C)c(=O)n1CC2
[1]
  Potency: inconclusive: 14.1 µM [inhibitor, single point] and inconclusive: 28.2 µM [inhibitor, single point]
[2]
  Potency: inconclusive: 22.4 µM [inhibitor, single point]
[8]
  Potency: inconclusive: 35.5 µM [inhibitor, single point]
[3]
  Potency: active: 15 µM
[9]
  Potency: inconclusive: 39.5 µM [inhibitor, partial curve]
[10]
  Potency: inconclusive: 25.1 µM [activator, partial curve, poor fit]
[11]
  Potency: active: 44.1 µM

## CC(=O)OCC1=C(C(=O)O)N2C(=O)[C@@H](NC(=O)Cc3cccs3)[C@H]2SC1
[1]
  Potency: inconclusive: 31.6 µM [inhibitor, partial curve, poor fit] and inactive
[2]
  Potency: inactive
[4]
  Potency: inconclusive: 24.5 µM [falling, single point]
[3]
  Potency: inactive
[6]
  Potency: inactive

## CCN(CC)CCNC(=O)c1ccc(N)cc1
[1]
  Potency: inconclusive: 2.24 µM [inhibitor, full curve, poor fit]
[7]
  Potency: inactive
